The other results are listed elsewhere or left out.

T1: UNK ZnF1-3 (human, UniProt Q9C0B0 31-174)
T1 sequence: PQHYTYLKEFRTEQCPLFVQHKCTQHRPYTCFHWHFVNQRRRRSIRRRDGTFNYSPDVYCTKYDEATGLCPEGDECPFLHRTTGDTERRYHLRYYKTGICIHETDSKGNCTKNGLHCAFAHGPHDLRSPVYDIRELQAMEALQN

B1: 90603600_90606004_1788_CDS_ENSMUSG00000008200_ENSMUST00000013759|mouse|control|control (ssRNA)
RNA: GGGAGUUCUACAGUCCGACGAUCCAGUUCUCCAAUCUGAAAUUUCAGGUCCUGCUCUUCCUCCACUUUAGGUGCUAGCUGGACUUUGAUCUUCUCAGAAGACUCUUCUACUUCCGUUUCUUUGUCUGAAAUUUCAUCUAUUUUCAACAGAGGAUUGAGCAUCA
B2: chr7:151640622:151640623:-_ENSMUSG00000031078_ENSMUST00000033407|mus_hu|FALSE|FALSE (ssRNA)
RNA: GGGAGUUCUACAGUCCGACGAUCACCUUUGGAGUAAUCUCUCUGUGACUCGUGCUUCUCCGUCUUGCCCUGGUAGUCGAAGCCCACCGCGCUCUUGUCUACUCGGUCGGCCUGCACGCCAUACUUGCCGCCAAAACCACUGGACAACAGAGGAUUGAGCAUCA
B3: chr19:36179134:36179135:+_ENSMUSG00000024800_ENSMUST00000025714|mus_mus|motif|central (ssRNA)
RNA: GGGAGUUCUACAGUCCGACGAUCUACUGUUAUUCAUUAUUCACAUGAAGGAUAAAAUAGUUUUUCUCUUAAAGUAUAUCGGAAUUAAUUAAGCUGUUAGUCUUUAAAAAAUGCUUCACUGGGUUUUAUUUGCUGUUUUAAUGGCAACAGAGGAUUGAGCAUCA
B4: chr16:33771563:33771564:+_ENSMUSG00000075254_ENSMUST00000152782|mus_hu|motif|central (ssRNA)
RNA: GGGAGUUCUACAGUCCGACGAUCCAGACUUAGAGUGGAUAUAAGUAUAAAAAUAACCAAAUUCUUACAAAUAAUACUUUGCUGCGGCAGUACUGAAUAAUUAGUGGAGGUUGCAAUUAUAAUACAACUUUAAAUAACAUUCUCCAACAGAGGAUUGAGCAUCA
B5: chr1:58468927:58468928:-_ENSMUSG00000026034_ENSMUST00000148330|mus_mus|mus_mus_mus_hu_False|28_28 (ssRNA)
RNA: GGGAGUUCUACAGUCCGACGAUCAAUUACUGAAAAAGAUGUUCAUUACCUUAGCUAUGUACUUAAUGAACCAAAUUACCCAAACAAAAUAAACAUGGCAAUAUAAAAAGCUAUACAAUUUACAAAGCUGUACAAAAUAACUUACAACAGAGGAUUGAGCAUCA
B6: 101291317_101296269_2030_3pUTR_ENSMUSG00000028528_ENSMUST00000094953|mouse|control|control (ssRNA)
RNA: GGGAGUUCUACAGUCCGACGAUCGCACCUUCUCCCACUCUUAGGGUUGGCGAUGCAGAGGCGGAGGUGGCGGUUCGGCGCGGUGUGGACUGUGCAGACACAGGUCCACUAGGAUGAAACACAUCUUCUACCCCAGCCUGUCCUCAACAGAGGAUUGAGCAUCA
B7: chr7:56126341:56126342:+_ENSG00000146731_ENST00000540286|hu_mus|hu_hu_hu_mus_True|8_88 (ssRNA)
RNA: GGGAGUUCUACAGUCCGACGAUCCAUGUUUCUCCUCUUGGCUCUGCGCAGAGCAACGAUCCCUUCUUUCGCAAGGGCAUCUAAGGAAAAGGGGUCAAUCCCCUUUUGAUUAAUAACGACAAAUCCUUUAUCUGAAUCACCACACAACAGAGGAUUGAGCAUCA
B8: 32832734_32832854_808_3pUTR_ENSMUSG00000013663_ENSMUST00000013807|mouse|control|control (ssRNA)
RNA: GGGAGUUCUACAGUCCGACGAUCAAAUGGCUCUGGACUUGGCGGUCGCUGAUGCCCCUCGCUCUGCUGCCGCUUGGCCCUGGACCGCAGCCGGGUAAUGGCUGCUGCGGCGGCUGCUGGAUGGUUGCAGAGACUGGGCCUGCUCAACAGAGGAUUGAGCAUCA
B9: chr8:117878989:117878990:-_ENSG00000164754_ENST00000297338|hu_hu|hu_hu_hu_mus_True|18_108 (ssRNA)
RNA: GGGAGUUCUACAGUCCGACGAUCCCAGAGGCCCUCUUUUACUGAGGACAAAAUGUGCGUAGAACAUUUUUCUUAUUUGCUAUGAAAUAAGAAGAAACCUGGAUCUCGGCGGGGAGCUUGGGCGGGCGGGUGGCCCGGGGAGGGCAACAGAGGAUUGAGCAUCA
B10: chr16:37877144:37877145:+_ENSMUSG00000034158_ENSMUST00000078717|perfect_dup|FALSE|FALSE (ssRNA)
RNA: GGGAGUUCUACAGUCCGACGAUCAUUUGCUAAUUCUGGUGGGAUUUCUUUAAUGAAGUUUCCUCCAAGGUAUAAACAUUCUAAACUCCGCAAGUUCUCGAUCUCGGCGGGGAUGCUCUGCAGCUGGUUGCCGCCCAGGCUGAGCAACAGAGGAUUGAGCAUCA
B11: chr10:84155644:84155645:+_ENSMUSG00000034453_ENSMUST00000077175|mus_hu|motif|central (ssRNA)
RNA: GGGAGUUCUACAGUCCGACGAUCACUAUAGCUCAUCACAGCAACUGUUGCAUUCUGUCCAGCUGGCAGUUUCUCAAAUUCGGUCAAUUCAAUGGUUUUUGUCUUAACCAUGGGUUUUUGUGGAUAUGCUAGUAGAUACAUGAGCAACAGAGGAUUGAGCAUCA
B12: chr11:77336104:77336105:-_ENSG00000074201_ENST00000525064|hu_mus|hu_hu_hu_mus_False|1_68 (ssRNA)
RNA: GGGAGUUCUACAGUCCGACGAUCCUCACACAUUGCUGUGAACAUCGCCUCCAAUGCUGACUUAUCACUAGGCACAAAUCGAAAUUCAGAAAUGGGUUCAACAUCAUCAUUGUCUUCCUCAUCUUCAUCAGAGAGAGCAGGUUCCAACAGAGGAUUGAGCAUCA
B13: chr6:17615347:17615348:+_ENSMUSG00000015733_ENSMUST00000015877|mus_hu|FALSE|FALSE (ssRNA)
RNA: GGGAGUUCUACAGUCCGACGAUCUCCGGUCAUGCAAUGUUCAUCUUAUGCAUUCUGCAUCUCUUUGCCAAUCUUGUAGCUAAGGAUCUUGUUCCAAUCAAUCUUAGUGCGUGUAACUGGCAACUGUCGACGUAAGGCUUUGAACAACAGAGGAUUGAGCAUCA
B14: chr1:66462064:66462065:+_ENSMUSG00000015222_ENSMUST00000114013|mus_mus|motif|central (ssRNA)
RNA: GGGAGUUCUACAGUCCGACGAUCGACCUCACCCUUCUCAUCCGUGGAUAAAUCAGCUUCGGAAACUGGAGGCGGGCAAGGGAUUUCGGCAGACAGCUUGAGGGCAACUUCAUCUUGGAUCAGUGAUGUCUCUGGAGAUGUUUCCAACAGAGGAUUGAGCAUCA
B15: chr11:29608294:29608295:+_ENSMUSG00000020458_ENSMUST00000102843|mus_mus|FALSE|FALSE (ssRNA)
RNA: GGGAGUUCUACAGUCCGACGAUCAAAUGUUUCACUUUCUUUCAUUUUGUCUUCCUUAGAAGAAAGUAAGUCAUCAUUGGAAUAAAUUGCAGUAUUAAACUCUUCCAUUUGCAAAGAAAUUGUCUCCUUUUUGGUCAAUGUUGGCAACAGAGGAUUGAGCAUCA
B16: chr16:94690093:94690094:+_ENSMUSG00000040785_ENSMUST00000117648|mus_hu|mus_mus_mus_hu_True|48_68 (ssRNA)
RNA: GGGAGUUCUACAGUCCGACGAUCGGGCUGGGAUGACGGACACACAGCCUCGAUUCCAGGGGGAAAAAAAAAUAGCCGAUACUAAUUUAAAAAGUAUAAUGAUUUUUGAAAAUCAGAUUACAUCUAUAAAAGAUGAAAAGCAAACAACAGAGGAUUGAGCAUCA
B17: 2835912_2836032_2307_3pUTR_ENSG00000087266_ENST00000503393|human|control|control (ssRNA)
RNA: GGGAGUUCUACAGUCCGACGAUCAGCCCCAGCCACCAAGGCAAAGCUCACUGCUGCUUUAUUGGAGGCAACAGCCCCUACUGGAGCCUGUGUCUUAGCGUUCCUGGGGGUCCCAGGGCCAGCCCCGGCCCCCACCCAGCUGCCCAACAGAGGAUUGAGCAUCA
B18: 60832291_60832411_462_CDS_ENSMUSG00000072437_ENSMUST00000088237|mouse|control|control (ssRNA)
RNA: GGGAGUUCUACAGUCCGACGAUCAUCGUCCUCGGGCGGCCCCAUCGUGGGCCCCGCCGCCGUGGGCCCGGGCCCCUCAUGCGGGGAGCCGCGGUCGCUAGCCCUGGUGAUGAGCGUGGCAAGCCCCAGGUAGUCGUUCCAGGACAACAGAGGAUUGAGCAUCA
B19: chr6:40197388:40197389:+_ENSMUSG00000057716_ENSMUST00000061740|mus_mus|mus_mus_mus_hu_False|18_58 (ssRNA)
RNA: GGGAGUUCUACAGUCCGACGAUCGAGACACUGGGGUGGAUUUAUUCCACCUCUGUUUGGGUGCUAGCCACUAAGACAGCUAUUUUGGGAUUCAUGGCCUUGAAUAUCAAGAGGGAAGGGACGAGAAUGGAAAGAGUCAAGAGUCAACAGAGGAUUGAGCAUCA
B20: 66852511_66855443_578_CDS_ENSG00000159593_ENST00000290810|human|control|control (ssRNA)
RNA: GGGAGUUCUACAGUCCGACGAUCUAAUGCAUUAUCUGGAUGAGAUUCUAUUACUGGAUGUUCUUUUAUAAUGAUCCUCAUAUAACCAACUAGUCCAUAUGUCCUACAGAUCAAAAGAGGAAUCUGGGAAUUCCAGAGGACAUCCAACAGAGGAUUGAGCAUCA
B21: chr4:25749455:25749456:-_ENSG00000091490_ENST00000264868|hu_hu|hu_hu_hu_mus_False|58_98 (ssRNA)
RNA: GGGAGUUCUACAGUCCGACGAUCGCACUAUGACCUCCCCUAGAAAACACAGGGGGAAAAAAUGUAAACCAAUGUACAAAGCUAUUGCCUUCCCUGUGUGUGGAGUGUUUGUCUCAAGGCUCCUUCUAGCUGCUGGAUUUGGGACAACAGAGGAUUGAGCAUCA
B22: chr3:148802587:148802588:-_ENSG00000071794_ENST00000310053|hu_mus|hu_hu_hu_mus_False|28_98 (ssRNA)
RNA: GGGAGUUCUACAGUCCGACGAUCUCCAACAACUUGUCCUCUCAAACUUCCAAAUAAAACCAAAUCUUGCUCUUCAUCACUCGUUAGGAAGUCAUCUGGAGGAAUAACAUCUUGGAAUUCAAAAUGUGGCAAGAAAGUUGAGUACAACAGAGGAUUGAGCAUCA

This assay concerns the target T1, UNK ZnF1-3. Kind of assay: nsRBNS (natural sequence RNA bind-n-seq); RBNS binding buffer (assumed for nsRBNS): 25 mM Tris pH 7.5, 150 mM KCl, 3 mM MgCl2, 0.01% Triton X-100, 500 ug/ml BSA, 20 U/ml SUPERase-In, 4 C; UNK is unkempt and MSI1 is Musashi-1; names of the RNAs are library labels; protein concentration not given here; high values mean tight binding.
The molecule B1 yielded a binding signal of 0.293 enrichment R. As for B2, the figure is 0.581 enrichment R; as for B3, 1.96 enrichment R; as for B4, 1.8 enrichment R.

On to B5, for which the binding signal was found to be 0.753 enrichment R.

B6 came in with a binding signal of 0.893 enrichment R. B7 gave a binding signal of 1.17 enrichment R. As for B8, the figure is 0.409 enrichment R. As for B9, the figure is 1.13 enrichment R; as for B10, 0.661 enrichment R.

Molecule B11 displayed a binding signal of 0.898 enrichment R. In turn, B12 yielded a binding signal of 1.05 enrichment R. On to B13, for which the binding signal worked out at 0.63 enrichment R. B14 returned a binding signal of 1.15 enrichment R. As for B15, the figure is 0.549 enrichment R; as for B16, 1.01 enrichment R; as for B17, 1.42 enrichment R. Consider B18, for which the binding signal came to 0.644 enrichment R. For B19 the value was 1.36 enrichment R; for B20, 1.01 enrichment R.

In turn, B21 gave a binding signal of 1.23 enrichment R. For B22 the value was 1.17 enrichment R.
